The structures appear in SMILES notation.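 Exposure lasted 48 hours, with cells grown in 96-well plates and compounds tested at five concentrations. Here, GI50 denotes the concentration required for 50% inhibition of growth.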 Calls of active or inactive are those of the source. No stated cut-off is given here; in the data, active = GI50 up to about 1.1 µM and inactive = higher. Some results are limits rather than exact numbers.

For this assay, the system named is NCI-H322M. The assay can be described thus: NCI-60 cell line screen, 48 h.
As for `CNC(=O)C1OC(n2cnc3c(NCc4cccc(I)c4)nc(Cl)nc32)C(O)C1O` (stereo not given), the GI50 was inactive: 14.6 µM. For `CCCn1cnc2c(SCc3ccc(Cl)cc3)nc(N)nc21`, the GI50 was inactive: 28.6 µM. `CN(C)CCNC(=O)c1cccc2[nH]c(-c3ccncc3)nc12`: the GI50 is inactive: 5.66 µM. The result for `CC1OC(OC2C(CO)OC(O[C@H]3CC[C@@]4(C)C(=CC[C@H]5[C@@H]6C[C@@H]7O[C@](O)(CC[C@H](C)COC8OC(CO)C(O)C(O)C8O)[C@@H](C)[C@@H]7[C@@]6(C)CC[C@@H]54)C3)C(OC3OC(C)C(O)C(O)C3O)C2O)C(O)C(O)C1O` (stereo not given in full) reads inactive: 4.59 µM; that for `COC(=O)c1ccccc1CC(Cc1ccccc1)C(=O)OC` (stereo not given), inactive: > 100 µM.

Turning to `CCCCCCCCCCCCCCCCCc1cc(Cl)nc(Cl)n1`, the GI50 was inactive: > 100 µM.

As for `CC(=O)OCc1c(C)c2ccccc2n1C(C)=O`, the GI50 was inactive: > 100 µM. Under `N[C@@H]1C[C@H](N)c2c(Cl)sc(Cl)c21` stands inactive: > 100 µM; under `O=C1Oc2ccc([N+](=O)[O-])cc2N/C1=C\C(=O)c1ccccc1`, inactive: > 100 µM; under `COC1(OC)c2no[n+]([O-])c2CCC1O` (stereo not given), inactive: > 100 µM. For `COc1cc([C@@H]2c3cc4c(cc3[C@@H](c3c(O)cc(O)c5c3O[C@H](c3ccc(O)c(O)c3)[C@H](OC(=O)c3cc(O)c(O)c(O)c3)C5)[C@H]3COC(=O)[C@H]23)OCO4)cc(OC)c1O`, the GI50 is inactive: 34.8 µM. `O=C(c1ccc2ccccc2c1O)N1CCCCC1`: the GI50 is inactive: > 100 µM. `CCCCCCCCCCCCCCNCC(OC)OC`: the GI50 is inactive: 16.3 µM. The result for `C/C(=N\N)C(CN1CCOCC1)C(c1ccccc1)c1c(O)c2ccccc2oc1=O` (stereo not given) reads inactive: > 100 µM; that for `CC(C)C1CN(C(=O)OCc2ccccc2)C2N1C(=O)C2(C)OCc1ccccc1` (stereo not given), inactive: 99.5 µM. Under `Cc1oc(N)c(S(=O)(=O)c2cc3ccccc3[n+]([O-])c2N)c1C` stands inactive: > 100 µM; under `CC1(C)C2C=CC1C(=O)CC2` (stereo not given), inactive: > 100 µM. The result for `COc1cccc2c1C(=O)c1c(O)c3c(c(O)c1C2=O)C[C@@](O)(C(C)=O)C[C@@H]3OC1CC(O)C(O)C(C)O1` (stereo not given in full) reads inactive: 4.51 µM; that for `O=[N+]([O-])c1ccc(CNC2=NNS(=O)(=O)c3ccccc32)cc1`, inactive: > 100 µM. For `COC(=O)C(F)C(Br)C(=O)OC` (stereo not given), the GI50 is inactive: 16.7 µM. Under `C[C@H](C(=O)C12CC3CC(CC(C3)C1)C2)[C@H](O)c1ccccc1` stands inactive: 22.9 µM; under `C=C1C(=O)OC2/C=C(/C)C(OC(C)=O)C/C=C(\C)C(OC(=O)C3(C)OC3C)C(O)C12` (stereo not given), inactive: > 100 µM.

As to `CC(C)(Br)C(=O)N1CCN(C(c2ccccc2)c2ccccc2)CC1`, the GI50 is inactive: 19 µM. The result for `C/C(=N\Nc1nc2cc(Cl)ccc2s1)c1ccccn1` reads active: 0.641 µM; that for `CN(C)CCCNC(=O)c1c(-c2cccnc2)cnc2ccccc12`, inactive: > 100 µM; that for `O=C(O)c1ccc(C(O)(c2ccccc2)c2ccccc2)cc1`, inactive: > 100 µM. The result for `C=C(CO)C(=O)OC1CC(=C)C2CC(O)C(C)C2C2OC(=O)C(=C)C12` (stereo not given) reads inactive: 49.8 µM; that for `N#CSC/C(Cl)=C/Cl.N#CSC/C(Cl)=C\Cl`, inactive: > 100 µM. With `COc1ccc(-c2oc3cc(O)c(OC)c(O)c3c(=O)c2OC2OC(CO)C(O)C(O)C2O)cc1` (stereo not given), the GI50 is inactive: > 100 µM. `COC(=O)C1=C(N)C2=C(N)Oc3ccccc3C2CC1=C(C#N)C#N` (stereo not given): the GI50 was inactive: 22.5 µM. Under `Cn1c2n/c(=N\c3ccc(Cl)cc3)[n+]3ccc4ccccc4c3c-2c([O-])n1-c1ccccc1` stands inactive: > 100 µM; under `CCCN(CCCC(NC(C)=O)C(=O)NCc1ccccc1)C(=O)N(C)N=O` (stereo not given), inactive: > 100 µM. `Cc1c(Br)c(Br)c(C)[s+]1[O-]`: the GI50 was inactive: 15 µM. Turning to `Cc1cc(S(=O)(=O)Nc2nc(Nc3ccccc3)n[nH]2)c(SCC(=O)O)cc1Cl`, the GI50 is inactive: > 100 µM.

As for `CCOC(=O)C(c1c[nH]c2ccccc12)(c1c[nH]c2ccccc12)c1c[nH]c2ccccc12`, the GI50 was inactive: 25.9 µM.

Consider `C[C@H](NC(=O)n1c2ccccc2c2ccccc21)C(=O)O`, for which the GI50 was inactive: > 100 µM. Take `Cc1ccc(NC(=O)C2C(=O)N(c3ccc(C)c(C)c3)C(=O)/C2=N\NC(N)=S)cc1C` (stereo not given): the GI50 was inactive: > 100 µM.

For `Cc1ccc(C2CC(c3cccc([N+](=O)[O-])c3)=Nc3ccccc3S2)cc1` (stereo not given), the GI50 is inactive: > 55.2 µM. Turning to `COC(=O)[C@@H](NC1(c2ccccc2)c2ccccc2-c2ccccc21)[C@@H](C(=O)OC)N(NC(=O)OCc1ccccc1)C(=O)OCc1ccccc1.COC(=O)[C@@H](NC1(c2ccccc2)c2ccccc2-c2ccccc21)[C@H](C(=O)OC)N(NC(=O)OCc1ccccc1)C(=O)OCc1ccccc1`, the GI50 was inactive: > 100 µM. The result for `CCCCNC(=O)c1cc(S(=O)(=O)n2ccnc2O)c(SC)cc1Cl` reads inactive: > 100 µM. With `Cc1cnc(SCCN2CCN(C)CC2)nc1-c1cc2ccccc2s1`, the GI50 was inactive: 17.9 µM. `Cc1nc2cccc(F)c2c(=O)n1C1CCCCNC1=O` (stereo not given): the GI50 is inactive: > 10 µM. The result for `CC(=O)c1ccccc1NP(=O)(c1ccccc1)c1ccccc1` reads inactive: 44.8 µM. Under `CN(C)c1ccc(O[Si](Oc2ccc(N(C)C)cc2)(Oc2ccc(N(C)C)cc2)Oc2ccc(N(C)C)cc2)cc1` stands inactive: > 100 µM; under `O=C1/C(=C/c2ccc(Cl)cc2)N=C(c2ccccc2)N1c1ccc(S(=O)(=O)Nc2nccs2)cc1`, inactive: 45.5 µM; under `Cc1ccc(S(=O)(=O)NC(=O)C2(Br)S(=O)(=O)OCCOS2(=O)=O)cc1`, inactive: > 100 µM. The result for `CCN(CC)CCNc1n[n+]([O-])c2cc([N+](=O)[O-])ccc2[n+]1[O-]` reads inactive: 2.24 µM; that for `CSc1nc(SC)c2cnn(CC3CO3)c2n1` (stereo not given), inactive: 36.6 µM. For the compound `CSC1NC(c2ccccc2)=C(C#N)C(=O)N1C1OCC(OC(C)=O)C(OC(C)=O)C1OC(C)=O` (stereo not given), the GI50 was inactive: > 100 µM. On to `NC(=O)C(Nc1c(Cl)cccc1Cl)c1cc2cc(Br)ccc2nc1Cl` (stereo not given), for which the GI50 was inactive: > 100 µM. For `C=CCOc1ccc(C2c3c(n[nH]c3O)CC(C)(O)C2C(=O)OC)cc1OC` (stereo not given), the GI50 is inactive: > 100 µM. As to `COCN(C)c1nc(N(C)C)nc(N(C)C)n1`, the GI50 is inactive: > 100 µM. Take `CN(C)CCCN1CCC2(CCC(C(C)(C)C)CC2)CC1`: the GI50 was inactive: 2.05 µM. On to `O=c1c2cc([N+](=O)[O-])ccc2nc2n1CCCCC2`, for which the GI50 was inactive: > 100 µM. Under `O=S1(=O)N=C(SCc2c[nH]c3ccccc23)N(c2ccccc2)c2ccncc21` stands inactive: > 100 µM; under `COC(=O)C(Cc1nc2ccccc2nc1O)C(NO)C(=O)Nc1c(Cl)cc([N+](=O)[O-])cc1Cl` (stereo not given), inactive: 46.2 µM.

Take `O=C1C2CN(Cc3ccccc3)CC1CN(CC1CC1)C2`: the GI50 is inactive: > 100 µM. The result for `CC(C)(C)OC(=O)C1=C(C(=O)OC(C)(C)C)SC2(S1)C(C(=O)OC(C)(C)C)=C(C(=O)OC(C)(C)C)Sc1c2ssc1=O` reads inactive: > 100 µM. The result for `CC(=O)c1ccc(NC(=O)/C(CC(=O)/C=C/c2ccccc2)=N/NC(N)=S)cc1` reads inactive: > 100 µM. For `CCOC(=O)c1cc(Br)c(-c2cc(C)no2)[nH]1`, the GI50 was inactive: 61.1 µM. Take `Cc1ccc(C)c(NC(=O)/C(=N\N)C(c2cnc3ccc([N+](=O)[O-])cc3n2)[N+](=O)[O-])c1` (stereo not given): the GI50 is inactive: 69 µM. In the case of `CC(=O)OCCOCNC(=S)N/N=C/c1cc(Br)cs1`, the GI50 was inactive: > 100 µM. The result for `CC(=O)Nc1cc2c3c(c1)CCCN3CCC2` reads inactive: > 100 µM; that for `NCCCn1c(Cl)nc2ccccc21`, inactive: > 100 µM; that for `NC1CC(=O)c2sc(I)cc21` (stereo not given), inactive: > 100 µM. The result for `CC(=O)OC(OC(C)=O)c1ccc2ccc3cccc4ccc1c2c34` reads inactive: 40.1 µM. As to `CCOC(=O)N1CCN(c2ccc3c(C)cc(C)nc3n2)CC1`, the GI50 is inactive: > 100 µM.

On to `O=C1C2=C(c3ccccc31)C(c1ccccc1Cl)N1C(=O)CSC1=N2` (stereo not given), for which the GI50 was inactive: > 100 µM. With `O=C1c2ccccc2N1C(=O)c1ccccc1[N+](=O)[O-]`, the GI50 was inactive: > 10 µM.

Turning to `CCCCCCCCCCCCCCCCCCN(C)CC(COP(=O)([O-])OCC[N+](C)(C)C)OC` (stereo not given), the GI50 was inactive: 23.2 µM.

Consider `CCCCNC(=O)C1C(=O)N(CCCC)C(=O)/C1=N\N` (stereo not given), for which the GI50 is inactive: > 100 µM.

For the compound `CCOC(=O)CC(NC(=O)c1nc[nH]c1/N=N/N(C)C)C(=O)OCC` (stereo not given), the GI50 was inactive: > 100 µM. Consider `NC(=O)N/N=C\CC(O)(C(F)(F)Cl)C(F)(F)Cl`, for which the GI50 is inactive: > 10 µM. For the compound `COc1ccc2c(c1)C1=NCCN(CCO)c3ccc([N+](=O)[O-])c(c31)N2`, the GI50 was active: 0.51 µM. As to `CC(C)C1=CC23CCC4C(C)(C(=O)O)CCCC4(C)C2CC1C1C(=O)N(CCCCCCN2C(=O)C4C5CC6C7(C)CCCC(C)(C(=O)O)C7CCC6(C=C5C(C)C)C4C2=O)C(=O)C13` (stereo not given), the GI50 was inactive: 10.6 µM.

Turning to `COc1cc(OC)c(SSCCCCS(=O)O)c(OC)c1`, the GI50 is inactive: 18.7 µM. In the case of `C=C1C(OC(C)=O)CC(OC(C)=O)C2(C)C(OC(C)=O)C(OC(C)=O)C3=C(C)C(OC(=O)/C=C/c4ccccc4)CC(C(OC(C)=O)C12)C3(C)C` (stereo not given), the GI50 is inactive: > 100 µM. Under `O=C1C=CC(=O)c2ncccc21` stands inactive: 9.68 µM; under `Cc1nc(C)c(C(=O)NNC(=O)C[N+](C)(C)C)cc1C(=O)NNC(=O)C[N+](C)(C)C`, inactive: > 100 µM; under `COc1ccc(Cc2ccc3nc(O)cc(C)c3c2)cc1S(=O)(=O)O`, inactive: > 100 µM.

Values taken from ChEMBL document CHEMBL1201862, “PubChem BioAssay data set” (2004).
